Experimental data reported in PubChem BioAssay (Tox21).
Values joined by “and” are separate entries in the source; they are usually repeats but may differ in a detail not shown here. Equal entries are not always repeated. Inconclusive means that the source gave no clear call. Such entries were picked first, then a sample of the others. Entries that show only a call come without a potency. For some assays here: Where the call is inconclusive, the potency comes from a doubtful curve fit. Active and inactive are the calls of the source. Unless noted, calls follow the shape of the full dose curve.

Key:
[1] = qHTS assay for small molecule agonists of the antioxidant response element (ARE) signaling pathway (AID 743202; active = well fitted activation curve with a large enough effect in the signal ratio in the repeat runs, not every such curve was filed as active; inconclusive = weak or mixed curves, or effect the other way; inactive = no such curve, though single readings can be large or run the other way; the % refers to the signal ratio; also: potency is read from the fitted curve at half-maximal effect); conditions: HepG2 ARE-bla reporter, beta-lactamase FRET, 16 h; activation: at 73.3 µM (top of the series) unless noted
How it was run: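 Compounds delivered in DMSO to ARE-bla HepG2 cells (2,000 cells/well, pre-incubated 5 h) and left 16 h at 37 C. LiveBLAzer B/G FRET substrate then added for 2 h at RT before fluorescence reading.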

[2] = qHTS assay to identify small molecule agonists of the peroxisome proliferator-activated receptor delta (PPARd) signaling pathway - cell viability counter screen (AID 743211; active = well fitted curve in the direction sought with a large enough effect in the repeat runs; inconclusive = weak or mixed curves; inactive = no such curve, though single readings can be large; an effect the other way counts as inactive or inconclusive; also: nearly all actives have a fitted effect of over 55% in size; also: potency is read from the fitted curve at half-maximal effect); conditions: PPARd-bla HEK293H viability, CellTiter-Glo luminescence, 17 h; activity change, negative = cytotoxicity: at 62.6 µM (top of the series)
How it was run: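 Counter screen for cytotoxicity run in parallel with the PPARd reporter screen. Beta-lactamase reporter HEK293H cells exposed to compounds 17 h; ATP-based CellTiter-Glo luminescence quantified viability.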

[3] = qHTS assay to identify small molecule antagonists of the peroxisome proliferator-activated receptor delta (PPARd) signaling pathway - cell viability counter screen (AID 743213; active = well fitted curve in the direction sought with a large enough effect in the repeat runs; inconclusive = weak or mixed curves; inactive = no such curve, though single readings can be large; an effect the other way counts as inactive or inconclusive; also: potency is read from the fitted curve at half-maximal effect; nearly all actives have a fitted effect of over 50% in size); conditions: PPARd-bla HEK293H viability, CellTiter-Glo luminescence, 17 h; viability change, negative = cytotoxic: at 62 µM (top of the series) unless noted
How it was run: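 HEK293H PPARd UAS-bla cells, 5 h pre-incubation, compound + L165041 300 nM final, 17 h 37 C; B/G FRET substrate 2 h RT; then CellTiter-Glo 30 min RT, luminescence.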

[4] = qHTS assay to identify small molecule agonists of the AP-1 signaling pathway (AID 1159526); conditions: ME-180 (cervical carcinoma) AP-1-bla reporter, beta-lactamase FRET ratio, 5 h; activation: at 76.8 µM (top of the series) unless noted; also: potency is read from the fitted curve at half-maximal effect
[5] = qHTS assay for small molecule activators of the heat shock response signaling pathway (AID 743210; active = well fitted activation curve with a large enough effect in the signal ratio in the repeat runs, with a control signal flat, not every such curve was filed as active; inconclusive = weak or mixed curves; the % refers to the signal ratio;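 also: HeLa cells with beta-lactamase reporter driven by heat shock elements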); conditions: HeLa HSE-bla reporter, beta-lactamase ratio, 5 h; activation: at 62.6 µM (top of the series) unless noted
How it was run: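 Reporter gene assay: HeLa cells stably bearing an HSE-bla construct, compound treatment 5 h at 37 C, LiveBLAzer substrate 2.5 h at RT, fluorescence intensity.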

[6] = target: Bile acid receptor (Homo sapiens) (UniProt Q96RI1); test: qHTS assay to identify small molecule antagonists of the farnesoid-X-receptor (FXR) signaling pathway (AID 743217; active = well fitted inhibition curve with a large enough effect in the signal ratio in the repeat runs, not every such curve was filed as active; inconclusive = weak or mixed curves, or effect the other way; inactive = no such curve, though single readings can be large or run the other way; the % refers to the signal ratio; also: potency is read from the fitted curve at half-maximal effect); conditions: HEK293T FXR-UAS-bla, beta-lactamase ratio, CDCA-stimulated, 16 h; activity change, negative = inhibition: at 62.6 µM (top of the series) unless noted
How it was run: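 FXR-UAS-bla HEK 293T cells pre-incubated 5 h at 37 °C, then exposed to compounds with chenodeoxycholic acid (50 uM final) for 16 h at 37 °C. Beta-lactamase reporter read by LiveBLAzer B/G FRET substrate fluorescence after 2 h at room temperature.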

[7] = target: Vitamin D3 receptor (Homo sapiens) (UniProt P11473); test: qHTS assay to identify small molecule antagonists of the vitamin D receptor (VDR) signaling pathway (AID 743223; active = well fitted inhibition curve with a large enough effect in the signal ratio in the repeat runs, not every such curve was filed as active; inconclusive = weak or mixed curves, or effect the other way; inactive = no such curve, though single readings can be large or run the other way; the % refers to the signal ratio); conditions: VDR-UAS-bla HEK293T, beta-lactamase FRET ratio, 16 h
How it was run: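 Cells carrying a VDR-driven beta-lactamase reporter (VDR-bla) were co-treated with compound and 3 nM final 1alpha,25-dihydroxyvitamin D3 for 16 h at 37C; reporter activity was measured as FRET substrate fluorescence after 2 h at room temperature.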

[8] = qHTS assay to identify small molecule antagonists of the vitamin D receptor (VDR) signaling pathway - cell viability counter screen (AID 743225; active = well fitted curve in the direction sought with a large enough effect in the repeat runs; inconclusive = weak or mixed curves; inactive = no such curve, though single readings can be large; an effect the other way counts as inactive or inconclusive; also: nearly all actives have a fitted effect of over 50% in size; also: potency is read from the fitted curve at half-maximal effect); conditions: VDR-bla HEK293T viability, CellTiter-Glo luminescence, 16 h; viability change, negative = cytotoxic: at 61 µM (top of the series) unless noted
How it was run: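 HEK293T VDR-bla; cpd + 1a,25-(OH)2D3 3 nM final, 16 h 37C/5% CO2; B/G FRET substrate 2 h RT; then CellTiter-Glo 30 min RT, luminescence.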

[9] = target: Vitamin D3 receptor (Homo sapiens) (UniProt P11473); test: qHTS assay to identify small molecule agonists of the vitamin D receptor (VDR) signaling pathway (AID 743222); conditions: HEK293T VDR-UAS-bla, beta-lactamase FRET ratio, 16 h; activation: at 63.5 µM (top of the series) unless noted
How it was run: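 VDR-bla cells were plated 4 h at 37C/5% CO2, then exposed to compounds in DMSO for 16 h. After LiveBLAzer B/G FRET substrate addition and 2 h at room temperature, beta-lactamase reporter fluorescence was read.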

[10] = target: Peroxisome proliferator-activated receptor delta (Homo sapiens) (UniProt Q03181); test: qHTS assay to identify small molecule agonists of the peroxisome proliferator-activated receptor delta (PPARd) signaling pathway (AID 743212); conditions: HEK293H PPARd-UAS-bla, beta-lactamase FRET ratio, 17 h; activation: at 62.6 µM (top of the series) unless noted; also: potency is read from the fitted curve at half-maximal effect
How it was run: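 A PPARd-bla HEK293H line with beta-lactamase under an Upstream Activator Sequence is treated with compounds at 37 C. Substrate loading for 2 h at room temperature precedes the fluorescence measurement.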

[11] = target: Peroxisome proliferator-activated receptor delta (Homo sapiens) (UniProt Q03181); test: qHTS assay to identify small molecule antagonists of the peroxisome proliferator-activated receptor delta (PPARd) signaling pathway (AID 743215; active = well fitted inhibition curve with a large enough effect in the signal ratio in the repeat runs, not every such curve was filed as active; inconclusive = weak or mixed curves, or effect the other way; inactive = no such curve, though single readings can be large or run the other way; the % refers to the signal ratio;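 also: cells stimulated with agonist L165041 at 300 nM final during compound exposure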); conditions: HEK293H PPARd-UAS-bla, beta-lactamase FRET ratio, antagonist, 17 h; ratio activity, negative = inhibition: at 62 µM (top of the series) unless noted
How it was run: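 PPARd UAS-bla HEK293H cells were pre-incubated 5 h at 37 C, then given test compounds in DMSO plus agonist L165041 (300 nM final). After 17 h at 37 C, beta-lactamase FRET substrate was added; fluorescence read after 2 h at room temperature.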

[12] = qHTS assay to identify small molecule agonists of the farnesoid-X-receptor (FXR) signaling pathway - cell viability counter screen (AID 743218; active = well fitted curve in the direction sought with a large enough effect in the repeat runs; inconclusive = weak or mixed curves; inactive = no such curve, though single readings can be large; an effect the other way counts as inactive or inconclusive; also: nearly all actives have a fitted effect of over 45% in size; also: potency is read from the fitted curve at half-maximal effect); conditions: FXR-bla HEK293T viability, CellTiter-Glo luminescence, 16 h; viability change, negative = cytotoxic: at 62.6 µM (top of the series) unless noted
How it was run: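 FXR-UAS-bla HEK 293T cells, plated 5 h at 37 C, were exposed to compounds for 16 h at 37 C. CellTiter-Glo was then added to the same wells as the bla readout; luminescence read after 30 min at room temperature.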

[13] = target: Bile acid receptor (Homo sapiens) (UniProt Q96RI1); test: qHTS assay to identify small molecule agonists of the farnesoid-X-receptor (FXR) signaling pathway (AID 743220; active = well fitted activation curve with a large enough effect in the signal ratio in the repeat runs, not every such curve was filed as active; inconclusive = weak or mixed curves, or effect the other way; the % refers to the signal ratio); conditions: HEK293T FXR-UAS-bla, beta-lactamase FRET ratio, 16 h; activation: at 62.6 µM (top of the series)
How it was run: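 Beta-lactamase reporter under UAS control in GeneBLAzer FXR HEK 293T cells (5000/well) measured with LiveBLAzer FRET substrate after 2 h at room temperature. Compound exposure lasted 16 h at 37C.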

[14] = qHTS assay to identify small molecule antagonists of the farnesoid-X-receptor (FXR) signaling pathway - cell viability counter screen (AID 743221; active = well fitted cell-killing curve with a large enough effect in the repeat runs, not every such curve was filed as active; inconclusive = weak or mixed curves, or effect the other way; inactive = no such curve, though single readings can be large or run the other way; also: nearly all actives have a fitted effect of over 50% in size); conditions: FXR-bla HEK293T viability, CellTiter-Glo luminescence, 16 h; activity change, negative = cytotoxicity: at 62.6 µM (top of the series) unless noted
How it was run: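 Multiplexed counter screen: viability of FXR-bla HEK 293T cells under agonist stimulation by chenodeoxycholic acid (50 uM, final) and test compound for 16 h at 37 C, measured by CellTiter-Glo luminescence in the reporter wells.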

[15] = activity change, negative = inhibition: at 61 µM (top of the series) unless noted
Tags tell the direction and shape of the fitted curve or compound fluorescence and quenching.

Chain of UniProt P11473 (P11473 whole entry, looked up): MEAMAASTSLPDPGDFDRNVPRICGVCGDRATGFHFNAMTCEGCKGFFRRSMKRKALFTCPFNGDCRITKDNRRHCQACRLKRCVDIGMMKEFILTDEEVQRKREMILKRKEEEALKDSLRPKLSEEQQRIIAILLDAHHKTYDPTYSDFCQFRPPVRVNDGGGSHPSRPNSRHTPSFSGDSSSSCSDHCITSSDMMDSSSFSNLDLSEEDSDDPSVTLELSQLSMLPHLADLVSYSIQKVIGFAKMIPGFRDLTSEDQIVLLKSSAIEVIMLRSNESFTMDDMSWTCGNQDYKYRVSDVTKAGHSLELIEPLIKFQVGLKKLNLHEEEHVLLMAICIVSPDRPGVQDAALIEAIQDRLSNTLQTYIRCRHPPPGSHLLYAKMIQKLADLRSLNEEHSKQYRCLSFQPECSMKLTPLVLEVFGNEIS
Chain of UniProt Q96RI1 (Q96RI1 whole entry, looked up): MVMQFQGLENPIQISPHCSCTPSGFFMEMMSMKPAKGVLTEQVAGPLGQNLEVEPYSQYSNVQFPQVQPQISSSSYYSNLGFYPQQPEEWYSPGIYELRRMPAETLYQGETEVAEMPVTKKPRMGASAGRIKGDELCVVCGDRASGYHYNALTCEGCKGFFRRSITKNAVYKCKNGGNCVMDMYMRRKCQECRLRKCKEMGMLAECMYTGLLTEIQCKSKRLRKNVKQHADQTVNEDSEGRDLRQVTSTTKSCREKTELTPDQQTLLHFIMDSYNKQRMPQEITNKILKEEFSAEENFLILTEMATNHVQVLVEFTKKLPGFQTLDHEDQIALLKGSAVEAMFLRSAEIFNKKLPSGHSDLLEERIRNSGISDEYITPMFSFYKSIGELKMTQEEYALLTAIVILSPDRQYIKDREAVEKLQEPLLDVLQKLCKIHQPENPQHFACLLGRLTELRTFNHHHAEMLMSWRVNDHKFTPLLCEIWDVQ
Chain of UniProt Q03181 (Q03181 whole entry, looked up): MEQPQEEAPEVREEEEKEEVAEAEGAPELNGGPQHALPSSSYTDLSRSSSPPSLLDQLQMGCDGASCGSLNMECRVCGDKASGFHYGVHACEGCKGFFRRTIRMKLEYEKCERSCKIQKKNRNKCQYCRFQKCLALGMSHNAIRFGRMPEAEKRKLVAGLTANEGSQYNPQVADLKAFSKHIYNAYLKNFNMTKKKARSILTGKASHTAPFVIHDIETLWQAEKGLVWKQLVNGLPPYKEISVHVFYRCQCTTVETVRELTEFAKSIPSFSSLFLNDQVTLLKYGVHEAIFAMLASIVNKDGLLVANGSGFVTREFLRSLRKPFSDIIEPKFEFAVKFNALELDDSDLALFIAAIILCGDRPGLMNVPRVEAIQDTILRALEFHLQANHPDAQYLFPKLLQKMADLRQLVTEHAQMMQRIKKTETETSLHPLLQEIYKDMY

CN(C)CCCOc1nn(Cc2ccccc2)c2ccccc12
Potency [1]: inconclusive: 16.8 µM [rising, partial curve]
Potency [2]: inconclusive: 23.7 µM [cytotoxic, partial curve]
Potency [3]: inconclusive: 29.8 µM [cytotoxic, single point]
Potency [4]: inconclusive: 12 µM [falling, partial curve, poor fit]

Cc1ccccc1C(=O)Nc1ccc(C(=O)N2CCCC(N(C)C)c3ccccc32)cc1 (centres undefined)
Potency [1]: inconclusive: 5.96 µM [falling, partial curve, poor fit]
Potency [5]: inactive
activity change, negative = inhibition [6]: inconclusive: -38.5%
activity change, negative = inhibition [7, 15]: inconclusive: -28.2%
Potency [4]: inactive

CC(C(=O)O)c1cccc(Oc2ccccc2)c1 (centres undefined)
activation [1]: inconclusive: 16.7%
Potency [2]: inactive
Potency [8]: inactive
Potency [4]: inactive

O=S(=O)(O)C(F)(F)F
activation [1]: inconclusive: -1.72%
Potency [2]: inactive
Potency [9]: inactive
Potency [4]: inactive

COc1ccc(C(=O)Nc2nc3ccccc3c(NCc3ccccc3)c2C#N)cc1
Potency [1]: inconclusive: 34.4 µM [falling, partial curve, poor fit]
Potency [10]: inconclusive: 21.9 µM
ratio activity, negative = inhibition [11]: inconclusive: -32.9%
Potency [6]: inconclusive: 97.7 µM [inhibitor, partial curve, poor fit]
Potency [8]: inactive
Potency [4]: inconclusive: 54.9 µM [cytotoxic, single point]

COc1ccc(N=Nc2cc(C)c(N=Nc3ccc(S(=O)(=O)O)cc3)cc2OC)cc1
Potency [1]: inconclusive: 68.6 µM [rising, single point]
Potency [5]: inactive
ratio activity, negative = inhibition [11]: inconclusive: -35%
activation [9]: inconclusive: -19.4%
Potency [4]: inactive

CCCCOc1cc(C(=O)NCCN(CC)CC)c2ccccc2n1
activation [1]: inconclusive: 2.93%
Potency [2]: inconclusive: 13.3 µM [cytotoxic, partial curve]
Potency [3]: inconclusive: 4.22 µM [cytotoxic, partial curve, poor fit]
activation [4]: inconclusive: 29.4% [at 35.3 µM]

CC(C)(Oc1ccc(C2CC2(Cl)Cl)cc1)C(=O)O (centres undefined)
activation [1]: inconclusive: 8.61%
activation [10]: inconclusive: 0.532%
Potency [9]: inactive
activity change, negative = inhibition [7, 15]: inconclusive: 14.7%
activity change, negative = inhibition ([7]; at 61 µM (top of the series)): inactive: 18.9% and inactive: 12.6%
Potency [4]: inactive

Nc1ccc2ccccc2c1S(=O)(=O)O
Potency [1]: active: 12.4 µM
Potency [5]: inactive
Potency [12]: inactive
Potency [4]: inconclusive: 35.4 µM [activator, partial curve, poor fit]

O=C(/C=C/c1ccc(O)c(O)c1)O[C@@H]1C[C@](O)(C(=O)O)C[C@@H](O)[C@H]1O
activation [1]: inconclusive: -20.8% [at 94.8 µM]
Potency [5]: inactive
Potency [12]: inconclusive: 4.43 µM [rising, full curve, poor fit]
activation [4]: inconclusive: -25.5%

O=Cc1ccc(Cl)cc1
Potency [1]: inactive
Potency [10]: inactive
Potency [4]: inactive

Cc1ccc2c(c1)OCC(=O)CO2
Potency [1]: inactive
Potency [10]: inactive
Potency [6]: inactive
activity change, negative = inhibition [7, 15]: inconclusive: 2.32%
viability change, negative = cytotoxic [8]: inconclusive: -13.9% [cytotoxic]
Potency [4]: inactive

CCOc1ccc(N=Nc2ccc(/C=C/c3ccc(N=Nc4ccc(OCC)cc4)cc3S(=O)(=O)O)c(S(=O)(=O)O)c2)cc1
Potency [1]: inconclusive: 21.4 µM [falling, partial curve]
Potency [5]: inactive
Potency [11]: inactive
Potency [7, 15]: inactive
Potency [4]: inactive

O=C(c1ccccc1)C1(O)CCCCC1
activation [1]: inconclusive: -0.694%
Potency [2]: inactive
Potency [4]: inactive

COc1cc(CCC(C)=O)ccc1O
activation [1]: inconclusive: -4.38%
Potency [10]: inactive
Potency [11]: inactive
Potency [6]: inactive
Potency [4]: inactive

Cc1cccc(C)c1NC(=O)CN1CCCC1
Potency [1]: inactive
Potency [2]: inactive
Potency [12]: inactive
activity change, negative = inhibition [7, 15]: inconclusive: -1.93%
Potency [4]: inconclusive: 26.8 µM [activator, single point]

Cc1ccc(-c2ncc(Cl)cc2-c2ccc(S(C)(=O)=O)cc2)cn1
Potency [1]: inactive
Potency [2]: inactive
Potency [13]: inactive
Potency [4]: inactive

COc1ccc(NS(=O)(=O)c2ccc(N)cc2)nn1
Potency [1]: inactive
Potency [10]: inactive
ratio activity, negative = inhibition [11]: inconclusive: -20.5%
Potency [12]: inconclusive: 0.0119 µM [rising, full curve, poor fit]
Potency [14]: inactive
Potency [7, 15]: inactive
Potency [4]: inactive

CC(C)(C)C(=O)CC(=O)C(C)(C)C
Potency [1]: inconclusive: 68.3 µM [rising, partial curve, poor fit]
Potency [2]: inconclusive: 61.4 µM [cytotoxic, single point]
Potency [7, 15]: inactive
Potency [8]: inconclusive: 0.0137 µM [cytotoxic, full curve, poor fit]
Potency [4]: inactive
